Measurements published in patent US7592316B2, “Peptides as NS3-serine protease inhibitors of hepatitis C virus” (Schering Corporation, priority 2000, dated 2009).

These compounds were tested against HCV NS3/NS4A protease (strain 1a) (Hepatitis C virus genotype 1a, UniProt P27958) (assay: biochemical). Conditions: Compounds prepared by Solid Phase Synthesis, Table 3; read-out: Ki* CLASS.
CCCC(NC(=O)[C@@H]1C[C@@H](OCc2ccccc2)CN1C(=O)C(NC(=O)Cc1ccccc1)C1CCCCC1)C(=O)C(=O)NCC(=O)N[C@@H](C(N)=O)c1ccccc1 (some centres unmarked) (PhAc-[ξChg][Hyp](Bn)[X2]G[dPhg]-NH2) gave a Ki of over 1 µM.
CCCC(NC(=O)[C@@H]1C[C@@H](OCc2ccccc2)CN1C(=O)C(NC(=O)Cc1ccccc1)C1CCCCC1)C(=O)C(=O)NCC(=O)NC(C(=O)O)c1ccccc1 (some centres unmarked) (PhAc-[ξChg][Hyp](Bn)[X2]G[ξPhg]-OH) was tested, and the Ki was 0.001 to 0.1 µM.
In the case of CCCC(NC(=O)[C@@H]1C[C@@H](OC(C)(C)C)CN1C(=O)[C@@H](NC(=O)Cc1ccc(CC(=O)O)cc1)C1CCCCC1)C(=O)C(=O)NCC(=O)N[C@H](C(N)=O)c1ccccc1 (some centres unmarked) (X14-[Chg][Hyp](tBu)[X2]G[Phg]-NH2), the Ki is reported as 0.001 to 0.1 µM.
CCC(NC(=O)[C@@H]1C[C@@H](OC(C)(C)C)CN1C(=O)[C@@H](NC(=O)Cc1ccc(CC(=O)O)cc1)C1CCCCC1)C(=O)C(=O)NCC(=O)N[C@H](C(N)=O)c1ccccc1 (some centres unmarked) (X14-[Chg][Hyp](tBu)[ξ(3-Amino-2-oxopentanoyl)]G[Phg]-NH2) was tested, and the Ki was 0.101 to 1 µM.
CCCC(NC(=O)[C@@H]1C[C@@H](OC(C)(C)C)CN1C(=O)[C@@H](NC(=O)Cc1ccccc1CC(=O)O)C1CCCCC1)C(=O)C(=O)NCC(=O)N[C@H](C(N)=O)c1ccccc1 (some centres unmarked) (X17-[Chg][Hyp](tBu)[X2]G[Phg]-NH2) showed a Ki of 0.001 to 0.1 µM.
CCC(NC(=O)[C@@H]1C[C@@H](OC(C)(C)C)CN1C(=O)[C@@H](NC(=O)Cc1ccccc1CC(=O)O)C1CCCCC1)C(=O)C(=O)NCC(=O)N[C@H](C(N)=O)c1ccccc1 (some centres unmarked) (X17-[Chg][Hyp](tBu)[ξ(3-Amino-2-oxopentanoyl)]G[Phg]-NH2) gave a Ki of 0.101 to 1 µM.
Work on CCCCC(NC(=O)C(CCCC)NC(=O)CNC(=O)C(=O)C(CCC)NC(=O)[C@@H]1C[C@@H](OCc2ccccc2)CN1C(=O)C(NC(=O)Cc1ccccc1CC(=O)O)C1CCCCC1)C(N)=O (some centres unmarked) (X17-[ξChg][Hyp](Bn)[X2]G[ξNle][ξNle]-NH2) yielded a Ki of 0.101 to 1 µM.
CCCC(NC(=O)[C@@H]1C[C@@H](OC(C)(C)C)CN1C(=O)[C@@H](NC(=O)c1ccccc1C(C)=O)C1CCCCC1)C(=O)C(=O)NCC(=O)N[C@H](C(N)=O)c1ccccc1 (some centres unmarked) (X24-[Chg][Hyp](tBu)[X2]G[Phg]-NH2) was tested, and the Ki was over 1 µM.
Work on CCC(NC(=O)[C@@H]1C[C@@H](OC(C)(C)C)CN1C(=O)[C@@H](NC(=O)c1ccccc1C(C)=O)C1CCCCC1)C(=O)C(=O)NCC(=O)N[C@H](C(N)=O)c1ccccc1 (some centres unmarked) (X24-[Chg][Hyp](tBu)[ξ(3-Amino-2-oxopentanoyl)]G[Phg]-NH2) yielded a Ki of over 1 µM.
With CCCC(NC(=O)[C@@H]1C[C@@H](OCc2ccccc2)CN1C(=O)[C@H](CCCC(=O)OC(C)(C)C)NC(=O)c1c(F)c(F)c(F)c(F)c1C(=O)O)C(=O)C(=O)NCC(=O)N[C@H](C(N)=O)c1ccccc1 (some centres unmarked) (X25-[Aad](OtBu)[Hyp](Bn)[X2]G[Phg]-NH2) the Ki was 0.101 to 1 µM.
For CCCC(NC(=O)[C@@H]1C[C@@H](OCc2ccccc2)CN1C(=O)[C@H](CCCC(=O)O)NC(=O)c1c(F)c(F)c(F)c(F)c1C(=O)O)C(=O)C(=O)NCC(=O)N[C@H](C(N)=O)c1ccccc1 (some centres unmarked) (X25-[Aad][Hyp](Bn)[X2]G[Phg]-NH2), the Ki was 0.101 to 1 µM.
CCCC(NC(=O)[C@@H]1C[C@@H](OC(C)(C)C)CN1C(=O)[C@@H](NC(=O)c1c(F)c(F)c(F)c(F)c1C(=O)O)C1CCCCC1)C(=O)C(=O)NCC(=O)N[C@H](C(N)=O)c1ccccc1 (some centres unmarked) (X25-[Chg][Hyp](tBu)[X2]G[Phg]-NH2) showed a Ki of 0.001 to 0.1 µM.
CCCC(NC(=O)[C@@H]1C[C@@H](OC(C)(C)C)CN1C(=O)[C@@H](NC(=O)c1c(F)c(F)c(F)c(F)c1C(=O)O)C1CCCCC1)C(=O)C(=O)NCC(=O)N[C@H](CC(=O)OC(C)(C)C)C(N)=O (some centres unmarked) (X25-[Chg][Hyp](tBu)[X2]G[dD](OtBu)-NH2) showed a Ki of over 1 µM.
For CCCC(NC(=O)[C@@H]1C[C@@H](OC(C)(C)C)CN1C(=O)[C@@H](NC(=O)c1c(F)c(F)c(F)c(F)c1C(=O)O)C1CCCCC1)C(=O)C(=O)NCC(=O)NC(C(N)=O)c1cccc(OC)c1OC (some centres unmarked) (X25-[Chg][Hyp](tBu)[X2]G[ξPhg(2,3-(OMe)2)]-NH2), the Ki was 0.101 to 1 µM.
Work on CCCC(NC(=O)[C@@H]1C[C@@H](OC(C)(C)C)CN1C(=O)[C@@H](NC(=O)c1c(F)c(F)c(F)c(F)c1C(=O)O)C1CCCCC1)C(=O)C(=O)NCC(=O)NC(C(N)=O)c1cc(OC)cc(OC)c1 (some centres unmarked) (X25-[Chg][Hyp](tBu)[X2]G[ξPhg(3,5-(OMe)2)]-NH2) yielded a Ki of 0.101 to 1 µM.
Compound CCCC(NC(=O)[C@@H]1C[C@@H](OC(C)(C)C)CN1C(=O)[C@@H](NC(=O)c1c(F)c(F)c(F)c(F)c1C(=O)O)C1CCCCC1)C(=O)C(=O)NCC(=O)NC(C(N)=O)c1cccc(Cl)c1 (some centres unmarked) (X25-[Chg][Hyp](tBu)[X2]G[ξPhg(3-Cl)]-NH2) has a Ki of 0.001 to 0.1 µM.
CCCC(NC(=O)[C@@H]1C[C@@H](OC(C)(C)C)CN1C(=O)[C@@H](NC(=O)c1c(F)c(F)c(F)c(F)c1C(=O)O)C1CCCCC1)C(=O)C(=O)NCC(=O)NC(C(N)=O)c1cccc(F)c1 (some centres unmarked) (X25-[Chg][Hyp](tBu)[X2]G[ξPhg(3-F)]-NH2) was tested, and the Ki was 0.101 to 1 µM.

*1 amine or outer side, *2 acyl side, *3 side chain or, on linkers, in order; H or OH if unused. Where a SMILES comes first, the peptide text is derived from it. [ ]: non-standard residue; d: D form. The star is where a group is joined. ξ: configuration not given here. ξ(3-Amino-2-oxopentanoyl) = CCC(N[*:1])C(=O)C(=O)[*:2]; ξPhg(3,5-(OMe)2) = COc1cc(OC)cc(C(N)C(=O)O)c1; ξPhg(2,3-(OMe)2) = COc1cccc(C(N)C(=O)O)c1OC; X25 = O=C(O)c1c(F)c(F)c(F)c(F)c1C(=O)*; ξPhg(3-Cl) = NC(C(=O)O)c1cccc(Cl)c1; ξPhg(3-F) = NC(C(=O)O)c1cccc(F)c1; Hyp = O=C(O)[C@@H]1C[C@@H](O)CN1; X2 = CCCC(N[*:1])C(=O)C(=O)[*:2]; Aad = N[C@@H](CCCC(=O)O)C(=O)O; X14 = O=C(O)Cc1ccc(CC(=O)*)cc1; dPhg = N[C@@H](C(=O)O)c1ccccc1; Chg = N[C@H](C(=O)O)C1CCCCC1; Phg = N[C@H](C(=O)O)c1ccccc1; X17 = O=C(O)Cc1ccccc1CC(=O)*; X24 = CC(=O)c1ccccc1C(=O)*; ξChg = NC(C(=O)O)C1CCCCC1; ξPhg = NC(C(=O)O)c1ccccc1; PhAc = O=C(Cc1ccccc1)*; ξNle = CCCCC(N)C(=O)O; Bn = c1ccc(C*)cc1; OtBu = CC(C)(C)O*; tBu = CC(C)(C)*
